What was measured:
[1] = tested on: patients with HBeAg-positive, chronic hepatitis B; assay: Adverse events and injection site reactions in the dosing regimen study (Parts 1 and 2); type: in vivo, human; details: Part 2 Gp A (N=21)/B (N=22)/C (N=11): 2x2 mg pSG2.HBs, 2x5×10^8 pfu MVA.HBs; lamivudine 100 mg/day
HBeAg = HBeAg / Anti-HBe serotyping (VITROS ECi); type: in vivo, hepatitis B virus
Procedure: (§1) Serotyping was performed using a VITROS ECi Immunodiagnostic System.

HBsAg = HBsAg / Anti-HBs serotyping (VITROS ECi); type: in vivo, hepatitis B virus
Procedure: as §1

HBV DNA = assay: Viral load (Amplicor HBV Monitor / COBAS Taqman); type: in vivo, hepatitis B virus; details: Treatment phase; Part 2 Gp A (n = 21)/B (n = 22)/C (n = 11)
Procedure: Viral load measurements were carried out as follows:
Groups 1-3: An Amplicor HBV Monitor (Roche) was used to measure viral load, according to the manufacturer's instructions:
Sensitivity: 200 copies/mL
Groups A, B, C: The COBAS Taqman system (Roche) was used according to the manufacturer's instructions:
Sensitivity: 35 copies/mL
All viraemias above the linear range were reported as “Above maximum linear range”.

[2] = tested on: HBs peptide pools (PreS2 + S ayw) and HbsAg protein; assay: Ex vivo IFN-gamma ELISPOT of patient PBMC; type: in vivo, human; details: Treatment phase; Part 2 Gp A (n = 21)/B (n = 22)/C (n = 11)
Procedure: ELISPOT Assays were carried out by Cellular Technology Limited (CTL Laboratory LLC. 10515 Carnegie Ave., Suite 503 Cleveland Ohio 44106, USA) using the following assay conditions:
The following peptides were pooled and used as antigens:
The HBs series of peptides are arranged into 4 distinct pools of peptides, each containing up to 12 total peptides:
The entire HbsAg protein was also used as an antigen.
An ELISPOT response to a peptide pool (or HbsAg protein) was considered to have occurred when the mean +/− standard deviation for the peptide pool, or HbsAg protein, was greater than the mean +3 standard deviations of that patient's negative control.

[3] = tested on: alanine transferase (ALT); details: in vivo
[4] = Treatment phase, Part 2 Gp A (n = 21)/B (n = 22)/C (n = 11)
[5] = Week 14/18, Part 2 Group A (n 21)/B (n 22)/C (n 11)

Nc1ccn([C@@H]2CS[C@H](CO)O2)c(=O)n1 [lamivudine, Lamivudine]
SAEs [1]: 0 | Total No. AEs [1]: 4 | Treatment related AEs [1]: 1 | HBeAg Loss (patients) (HBeAg; [4]): 1 | HBeAg seroconversion (patients) (HBeAg; [4]): 0 | Anti Hbe+ (patients) (HBeAg; [5]): 0 | HBeAg+ (patients) (HBeAg; [5]): 8 | HBeAg− (patients) (HBeAg; [5]): 1 | HBeAg−, percent of patients (HBeAg; [5]): 9% | HBsAg Loss (patients) (HBsAg; [4]): 1 | HBsAg seroconversion (patients) (HBsAg; [4]): 0 | Anti Hbs+ (patients) (HBsAg; [5]): 1 | HBsAg+ (patients) (HBsAg; [5]): 8 | HBsAg− (patients) (HBsAg; [5]): 1 | anti-HBs Seroconversion (patients) (HBsAg; [5]): 0 | HBV DNA <1.5 log (patients) (HBV DNA): 9 | Immunological response (patients, ELISPOT) [2]: 5 | ALT Normalized (patients) [3]: 2

Reference: patent US20080267996A1 (priority 2005, published 2008)
